# From the supplement of paper PMC3334620
# Over roughly 33,000 sequences, “E-score (-0.5 to 0.5)” has its median near -0.056; the highest 2% begin near 0.38. The list shows a part of the results.
# Molecular target: Stb4 (UniProt P50104)
# Test: PBM E-score (8-mer binding enrichment) (E-score (-0.5 to 0.5)); higher = stronger / more preferred TF binding; most listed sequences are background and not binding sites
# Conditions: protein concentration: 200 nM; construct: GST-DNA-binding domain
# Procedure, shortened: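 PURExpress in vitro transcription/translation supplied GST-tagged yeast transcription factors, either full-length or DNA-binding domain. Applied at about 100-200 nM to universal all-10-mer Agilent arrays double-stranded by primer extension, the bound protein was detected with fluorescent anti-GST. E-scores, modified Wilcoxon-Mann-Whitney statistics, were given by the Universal PBM Analysis Suite to ungapped eight-base words pooled with their reverse complements after masliner normalisation.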
row,Sequence,PBM E-score
1,AGTGAGTG,-0.0801
2,ACAAAATA,0.0175
3,CCGAACAG,0.4
4,CGTGTAGC,-0.0116
5,GATGAATC,0.0471
6,ACTCTAAC,-0.0475
7,ACATCACC,0.0212
8,CCATAAAA,0.0242
9,ACAATATG,0.0625
10,CACTTACG,0.1
11,AACGCCTG,-0.214
12,CTTGAACC,0.019
13,AATATATT,0.154
14,GACAGCCA,-0.217
15,TCACAGAA,-0.117
16,ACTCTCCA,-0.121
17,ATCCCTTC,-0.183
18,AACGACGC,-0.274
19,CAACCCGC,0.149
20,CGCCCAAA,-0.1
21,CGCTGAAC,0.00896
22,GCCAGTGA,-0.162
23,CAAGCCTA,-0.239
24,CTTTGGAC,0.0624
25,ATTCTCGG,0.425

row,Sequence,PBM E-score
1,GTCACCAC,-0.103
2,ACCAACGA,-0.0405
3,CAAGGTCC,-0.0505
4,AGCTTTCG,0.0251
5,GCACAAGA,0.0127
6,TCCCGAGA,0.453
7,GCGGGCTA,-0.0737
8,ACGAGCAT,-0.255
9,CCGTACTA,0.12
10,GATTACTA,0.0638
11,AAACCCCG,0.254
12,CACTAGCG,-0.188
13,CCAGGGTA,-0.0473
14,CCTAGTTA,0.0148
15,CATCGTAG,-0.213
16,CCCACTCA,-0.31
17,GGCCATAC,0.16
18,ACGAGTCC,0.0129
19,GGACCAAA,0.0255
20,ACGCTTAC,-0.0744
21,CATATCAC,-0.0932
22,ATTGTAGC,0.0369
23,ATCTATCC,0.333
24,AGGTATCA,-0.232
25,ACGTTACG,-0.201

row,Sequence,PBM E-score
1,TATCCCAA,0.0571
2,ACGACACG,0.0237
3,AGACTTAG,-0.202
4,GTAACCCA,-0.0452
5,AGGAACAA,-0.104
6,ACTAAGAA,-0.0529
7,TATGAGGA,-0.143
8,AGTTCGGC,0.357
9,TACATTGA,-0.119
10,AATAGCGC,-0.154
11,CTGGCCCC,0.0187
12,CTACTGGC,-0.0912
13,AACACTCG,0.0221
14,GGTCCACA,-0.131
15,CTCTGAGC,-0.168
16,AAAGGACC,-0.0172
17,ATGACCAA,0.0323
18,CTCCAGCA,-0.28
19,CCGAACAC,0.372
20,TCGTAAGA,0.0201
21,GTGTAACA,-0.181
22,AAGAGAAT,0.0169
23,ATTGCTAC,-0.0804
24,AAGTGTTC,0.172
25,CGGGAACC,0.301

row,Sequence,PBM E-score
1,AAGTATGA,-0.0353
2,GTAGTCAA,-0.1
3,GGATAGCC,0.248
4,GCCCCTAC,-0.104
5,AGTTAAAA,0.045
6,ACAAGGTA,0.0227
7,AAACTCCG,0.301
8,GTATATAC,-0.0897
9,ACCTTTAA,0.0727
10,TCGACGCA,-0.0683
11,CTGTCATC,-0.138
12,CATTAAGC,-0.0965
13,CTCGTCCA,-0.235
14,AAGATCGA,0.0385
15,GTCATGAA,-0.0398
16,AATGTGAT,-0.15
17,AGGCTACT,-0.15
18,ACGGTCGC,-0.121
19,GATTCACC,0.029
20,GTCGACCA,-0.0625
21,AGCGCACC,0.00643
22,AGGGTGTA,-0.093
23,AAATGAGG,-0.113
24,GCCTCGCC,0.0101
25,ATGTCGAC,-0.138

row,Sequence,PBM E-score
1,CATCTCAG,-0.198
2,CATGCAAA,-0.141
3,ACGACACC,0.0194
4,CAGCTGCG,0.102
5,CTATCGAA,-0.226
6,AACCACCG,0.1
7,ACGCGGAA,0.329
8,GTACTTCA,0.0185
9,ACCGTAGA,-0.0236
10,AAGGGCGG,0.0702
11,CGTACACG,-0.0989
12,AGCACTCA,-0.0646
13,GACATTTA,-0.124
14,CATCATCA,-0.13
15,GGCCAAAA,0.00575
16,AGATGCGG,0.0776
17,CCAACCTA,-0.116
18,CATAACAC,-0.0742
19,CACCATAG,-0.121
20,CGGTCTGC,-0.0321
21,AATTCCAT,-0.0656
22,CGACGAAA,-0.0666
23,GATAACCC,0.0517
24,ATTGTCCC,0.116
25,GACTTGGA,0.0627

row,Sequence,PBM E-score
1,CGTTGGAC,-0.167
2,ACGGTGGC,-0.0688
3,AAAGAAGA,-0.0578
4,AACGCAGG,-0.122
5,CCGGTATC,0.272
6,ACCCGGTG,0.199
7,CAAATGGC,-0.166
8,ACGATGAA,-0.251
9,AAAACGCA,-0.0311
10,ACATTTGC,0.0649
11,ACAGAATG,-0.144
12,GGCCGCTA,0.0133
13,ACAACCCG,0.253
14,AATGGACC,0.121
15,ATAGTATC,0.0279
16,AGCAAGTA,-0.226
17,ACCTGATG,-0.173
18,AGGGTTAA,-0.149
19,CTGAGGAA,-0.153
20,CTGCTATC,0.0488
21,GGTCTTGA,0.0566
22,AATTCGGG,0.39
23,AAAGCCAG,-0.246
24,ACACAAGC,-0.23
25,TGACTTAA,-0.174

row,Sequence,PBM E-score
1,AAATTCAA,-0.229
2,ACACTACT,-0.0397
3,CGAATCCC,0.21
4,CATCCTAA,-0.079
5,GAGAATAC,0.00299
6,CATGACAA,-0.0893
7,CAGCCAGG,-0.369
8,CCTCTAGC,-0.336
9,ACGCCATA,-0.131
10,CCGCATGA,-0.00551
11,AAGCCGCG,0.184
12,CCCCGTCC,0.0876
13,ACTGCCAG,-0.185
14,GGTCTTAA,-0.127
15,AACACGTG,-0.0809
16,CTTTGTAC,-0.0949
17,ATACCCAT,-0.105
18,TCTTGAAA,-0.0507
19,CTAGGCCA,-0.106
20,CTAGCATC,0.0741
21,ACAACTGT,-0.209
22,AAGAGCTC,-0.0564
